Experimental data published in PubChem BioAssay (NCATS).
The shares of active, inactive and inconclusive entries below differ from those in the screen. For part of these data: No potency is given beside an inconclusive call; the fits are too rough. Active and inactive are the calls of the source. Unless noted, calls come from the whole dose curve; as a rule, active = well fitted curve in the direction sought with a large enough effect; inconclusive = small, poorly fitted or top-dose-only effect, or another doubt; inactive = no such curve, though single readings can be large; an effect the other way counts as inactive or inconclusive.

Columns and labels:
[1] = qHTS Assay for Identification of Small Molecule Antagonists for NFkB Signaling Pathway (AID 895; active = well fitted inhibition curve with a large enough effect in the signal ratio, with a control signal flat, not every such curve was filed as active; inconclusive = small, poorly fitted or top-dose-only effect, or effect the other way, or a change in a side signal; the % refers to the signal ratio; note: potency is the fitted concentration of half-maximal effect); conditions: NFkB beta-lactamase reporter cells, FRET ratio 460/530, stimulated with 10 pM TNF alpha; activity change, negative = inhibition: at 38.3 µM (top of the series)
Method in brief: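 ME-180 NFkB-bla cells (beta-lactamase under NFkB response element), plated overnight, treated with compound then 10 pM TNF alpha (about EC50) for 5 hrs at 37 C. LiveBLAzer FRET read at 460/530 nm emission, 405 nm excitation.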

[2] = molecular target: Glutaminase kidney isoform, mitochondrial (Homo sapiens) (UniProt O94925); test: qHTS for Inhibitors of Glutaminase (GLS): LOPAC Validation (AID 624146); note: potency is the fitted concentration of half-maximal effect; nearly all actives have a fitted effect of over 60% in size
UniProt O94925, sequence (O94925 whole entry, looked up, canonical isoform): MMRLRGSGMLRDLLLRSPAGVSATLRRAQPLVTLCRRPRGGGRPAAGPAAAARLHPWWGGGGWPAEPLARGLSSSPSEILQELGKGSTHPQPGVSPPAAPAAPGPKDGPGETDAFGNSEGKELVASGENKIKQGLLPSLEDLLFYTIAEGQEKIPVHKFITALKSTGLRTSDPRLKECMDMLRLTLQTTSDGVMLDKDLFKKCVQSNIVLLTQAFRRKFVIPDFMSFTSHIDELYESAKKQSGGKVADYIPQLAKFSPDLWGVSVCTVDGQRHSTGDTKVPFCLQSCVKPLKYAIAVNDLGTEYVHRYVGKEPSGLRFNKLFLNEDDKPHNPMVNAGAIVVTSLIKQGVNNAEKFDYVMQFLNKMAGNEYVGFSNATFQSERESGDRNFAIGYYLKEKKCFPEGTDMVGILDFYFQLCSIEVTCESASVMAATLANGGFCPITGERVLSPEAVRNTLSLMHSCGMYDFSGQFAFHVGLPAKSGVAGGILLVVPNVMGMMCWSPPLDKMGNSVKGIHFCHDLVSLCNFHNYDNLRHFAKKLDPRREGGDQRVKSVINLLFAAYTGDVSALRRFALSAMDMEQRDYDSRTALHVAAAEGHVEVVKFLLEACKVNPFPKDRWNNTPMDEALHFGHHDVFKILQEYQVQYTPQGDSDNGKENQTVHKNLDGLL
Method in brief: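 Read-out is an Amplex red fluorescence increase coupled through glutamate oxidase and HRP, measured before and after 30 min room-temperature incubation. hKGA is in 45 mM KH2PO4 (pH 8.2) with 0.02% Tween-20; glutamine added as 1mM solution.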

[3] = qHTS Assay for Lipid Storage Modulators (AID 1519; calls by dose curve; note: % is set by controls: 0 for no effect and ±100 for the full control effect); conditions: Drosophila S3 cells, BODIPY lipid droplet/cell ratio, laser cytometry, cells loaded with oleic acid; activity change, negative = inhibition: at 57.5 µM (top of the series)
Method in brief: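 Cells seeded at 5,000 per well were treated with compounds over a concentration series and loaded with oleic acid (400 uM, as added). Lipid droplet fluorescence (488 nm excitation, 500-530 nm channel) was read by laser-scanning cytometry and normalized to 20 uM Triacsin C.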

[4] = qHTS for differential inhibitors of proliferation of Plasmodium falciparum line Dd2 (AID 1882); conditions: Potency: Plasmodium falciparum Dd2 proliferation inhibition; note: potency is the fitted concentration of half-maximal effect; nearly all actives have a fitted effect of over 65% in size
Method in brief: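 SYBR Green I DNA fluorescence read-out, ex 485/em 535 nm. Signals were normalized to 0.29 uM artemisinin and DMSO wells, then corrected using vehicle-only plates flanking each stack. Parasite growth ran 72 h in erythrocytes before lysis.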

[5] = qHTS Assay for Modulators of Human Peripheral Myelin Protein 22 (PMP22) Expression/Activity (AID 1967; active = well fitted curve in the direction sought with a large enough effect in the signal ratio; inconclusive = small, poorly fitted or top-dose-only effect, or effect the other way, or a change in a side signal; inactive = no such curve, though single readings can be large or run the other way; the % refers to the signal ratio; note: potency is the fitted concentration of half-maximal effect); conditions: Cell-based PMP22 reporter, dual-color luciferase ratio, mouse Pmp22 promoter in mouse Schwann cells; activity change (ratio): at 115 µM (top of the series), 0% = compound-free control cells
Method in brief: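 Engineered MSC80 cells, Pmp22-promoter green and EF-alpha red luciferase reporters; 24h compound treatment at 37 °C. Concentration-response fits on green, red and ratio signals, each overlap-corrected, with %Activity normalized to untreated wells.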

[6] = molecular target: Thioredoxin reductase 1, cytoplasmic (Rattus norvegicus) (UniProt O89049); test: qHTS Assay for Substrates of Mammalian Selenoprotein Thioredoxin Reductase 1 (TrxR1) (AID 488772); conditions: purified TrxR1, NADPH consumption substrate assay;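 note: NADPH fluorescence in the first read after selenite addition and not the 8 min delta; potency is the fitted concentration of half-maximal effect; a drop in NADPH fluorescence below the no-compound background marks a TrxR1 substrate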
UniProt O89049, sequence (O89049 whole entry, looked up): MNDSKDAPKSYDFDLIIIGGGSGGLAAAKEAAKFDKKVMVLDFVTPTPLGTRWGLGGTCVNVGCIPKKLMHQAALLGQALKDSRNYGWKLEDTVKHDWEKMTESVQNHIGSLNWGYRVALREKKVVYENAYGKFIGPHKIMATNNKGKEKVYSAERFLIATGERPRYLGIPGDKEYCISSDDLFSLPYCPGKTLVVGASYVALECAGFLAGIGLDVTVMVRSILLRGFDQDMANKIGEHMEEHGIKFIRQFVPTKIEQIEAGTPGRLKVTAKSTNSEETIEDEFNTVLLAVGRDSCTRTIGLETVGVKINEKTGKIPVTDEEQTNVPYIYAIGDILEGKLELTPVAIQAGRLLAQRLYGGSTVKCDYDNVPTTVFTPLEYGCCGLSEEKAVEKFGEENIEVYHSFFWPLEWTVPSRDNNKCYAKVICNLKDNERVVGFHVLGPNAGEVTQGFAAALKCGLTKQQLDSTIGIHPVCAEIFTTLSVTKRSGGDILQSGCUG
Method in brief: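 Quantitative HTS in Tris-HCl buffer at pH 7.5 with EDTA and Tween-20, using rat TrxR1, 400 uM NADPH and 400 uM selenite (final). A fall in initial NADPH fluorescence relative to background marked substrate behaviour.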

[7] = molecular target: ATPase family AAA domain-containing protein 5 (Homo sapiens) (UniProt Q96QE3); test: Validation screen for small molecules that inhibit ELG1-dependent DNA repair in human embryonic kidney (HEK293T) cells expressing luciferase-tagged ELG1 (AID 493107); note: potency is the fitted concentration of half-maximal effect; nearly all actives have a fitted effect of over 70% in size
Method in brief: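 Quantitative HTS in HEK293T cells carrying luciferase-tagged ELG1, stimulated with 5-fluorouridine alongside compound for 16 hr. Loss of luciferase signal marks inhibition of ELG1 response.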

[8] = Inducers of the Endoplasmic Reticulum Stress Response (ERSR) in human glioma: Validation (AID 504836); conditions: human glioma cells, ER stress response reporter; at 38.3 µM (top of the series); note: 0% is about no effect
Method in brief: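 Stably transfected U87-MG glioma cells carrying a GRP78-based luciferase sensor; 16 h compound incubation. Luminescence end-point read 10 min after Bright-Glo addition at room temperature.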

[9] = qHTS for Activators of Parkin Expression: LOPAC Validation Assay (NLuc Reporter) (AID 720572; note: potency is the fitted concentration of half-maximal effect)
Method in brief: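 Neuronal cells with a Parkin promoter-driven FLuc/NLuc coincidence reporter were treated 24 h at 37 C in 7-point dose response (LOPAC). NLuc luminescence read after FLuc; signals normalized to DMSO and positive control (100%).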

[10] = molecular target: Lysine-specific demethylase 5B (Homo sapiens) (UniProt Q9UGL1); test: Optimization screen for KDM5B Histone Demethylases FDH coupled qHTS against the LOPAC library (AID 1347166); note: 0% is about no effect
UniProt Q9UGL1, sequence (Q9UGL1 whole entry, looked up): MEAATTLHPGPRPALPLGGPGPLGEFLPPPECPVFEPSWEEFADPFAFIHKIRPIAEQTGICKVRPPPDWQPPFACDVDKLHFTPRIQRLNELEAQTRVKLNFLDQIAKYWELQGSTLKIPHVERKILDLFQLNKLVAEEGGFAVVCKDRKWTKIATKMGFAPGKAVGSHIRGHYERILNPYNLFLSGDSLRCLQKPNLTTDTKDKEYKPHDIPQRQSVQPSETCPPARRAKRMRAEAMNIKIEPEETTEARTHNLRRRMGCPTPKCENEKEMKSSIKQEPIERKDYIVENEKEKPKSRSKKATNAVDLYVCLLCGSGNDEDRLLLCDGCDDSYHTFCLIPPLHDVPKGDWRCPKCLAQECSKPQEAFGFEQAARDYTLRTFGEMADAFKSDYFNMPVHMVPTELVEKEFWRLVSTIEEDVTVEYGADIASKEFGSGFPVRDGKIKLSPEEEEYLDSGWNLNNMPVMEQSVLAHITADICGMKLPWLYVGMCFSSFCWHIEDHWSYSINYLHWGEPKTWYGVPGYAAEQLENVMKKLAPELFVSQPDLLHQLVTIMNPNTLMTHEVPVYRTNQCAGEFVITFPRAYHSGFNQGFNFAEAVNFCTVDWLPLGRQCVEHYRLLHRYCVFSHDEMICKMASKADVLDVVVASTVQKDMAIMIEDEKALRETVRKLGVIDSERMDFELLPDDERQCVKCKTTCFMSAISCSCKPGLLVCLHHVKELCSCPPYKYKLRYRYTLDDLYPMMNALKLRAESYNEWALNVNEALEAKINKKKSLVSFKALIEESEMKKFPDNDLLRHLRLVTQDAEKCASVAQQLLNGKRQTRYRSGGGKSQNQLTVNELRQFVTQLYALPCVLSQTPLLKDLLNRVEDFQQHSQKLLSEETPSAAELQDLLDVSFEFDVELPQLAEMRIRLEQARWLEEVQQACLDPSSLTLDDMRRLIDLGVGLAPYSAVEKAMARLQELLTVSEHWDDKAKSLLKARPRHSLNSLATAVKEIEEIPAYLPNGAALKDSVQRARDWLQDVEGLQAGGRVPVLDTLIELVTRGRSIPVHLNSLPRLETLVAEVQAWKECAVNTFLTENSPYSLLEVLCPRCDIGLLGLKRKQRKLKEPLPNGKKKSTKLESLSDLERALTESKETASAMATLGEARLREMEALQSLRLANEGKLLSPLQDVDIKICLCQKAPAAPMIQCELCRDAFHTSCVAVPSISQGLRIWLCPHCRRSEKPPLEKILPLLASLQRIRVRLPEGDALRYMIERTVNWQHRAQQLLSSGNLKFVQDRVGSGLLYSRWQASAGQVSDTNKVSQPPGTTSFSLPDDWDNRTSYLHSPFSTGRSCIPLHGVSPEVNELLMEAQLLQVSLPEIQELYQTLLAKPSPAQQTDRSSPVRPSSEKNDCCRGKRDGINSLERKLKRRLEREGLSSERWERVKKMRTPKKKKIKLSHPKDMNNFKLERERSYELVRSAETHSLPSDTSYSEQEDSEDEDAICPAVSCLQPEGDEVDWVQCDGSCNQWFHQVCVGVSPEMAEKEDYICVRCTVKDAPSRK
Method in brief: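 KDM5BDeltaAP (200nM final) preincubated 10 min with compound, then 12.5uM H3K4Me3, 25uM a-ketoglutarate, ascorbate, Fe(II), NAD+ and FDH added; 50mM HEPES pH 7.5, 0.01% Tween-20. NADH fluorescence (340/450 nm) change over 30 min, room temperature.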

[11] = molecular target: Rap guanine nucleotide exchange factor 3 (Homo sapiens) (UniProt O95398); test: Confirmatory qHTS for antagonist of cAMP-regulated guanine nucleotide exchange factor 3 (EPAC1) (AID 1645880); note: potency is the fitted concentration of half-maximal effect; nearly all actives have a fitted effect of over 55% in size
UniProt O95398, sequence (O95398 whole entry, looked up): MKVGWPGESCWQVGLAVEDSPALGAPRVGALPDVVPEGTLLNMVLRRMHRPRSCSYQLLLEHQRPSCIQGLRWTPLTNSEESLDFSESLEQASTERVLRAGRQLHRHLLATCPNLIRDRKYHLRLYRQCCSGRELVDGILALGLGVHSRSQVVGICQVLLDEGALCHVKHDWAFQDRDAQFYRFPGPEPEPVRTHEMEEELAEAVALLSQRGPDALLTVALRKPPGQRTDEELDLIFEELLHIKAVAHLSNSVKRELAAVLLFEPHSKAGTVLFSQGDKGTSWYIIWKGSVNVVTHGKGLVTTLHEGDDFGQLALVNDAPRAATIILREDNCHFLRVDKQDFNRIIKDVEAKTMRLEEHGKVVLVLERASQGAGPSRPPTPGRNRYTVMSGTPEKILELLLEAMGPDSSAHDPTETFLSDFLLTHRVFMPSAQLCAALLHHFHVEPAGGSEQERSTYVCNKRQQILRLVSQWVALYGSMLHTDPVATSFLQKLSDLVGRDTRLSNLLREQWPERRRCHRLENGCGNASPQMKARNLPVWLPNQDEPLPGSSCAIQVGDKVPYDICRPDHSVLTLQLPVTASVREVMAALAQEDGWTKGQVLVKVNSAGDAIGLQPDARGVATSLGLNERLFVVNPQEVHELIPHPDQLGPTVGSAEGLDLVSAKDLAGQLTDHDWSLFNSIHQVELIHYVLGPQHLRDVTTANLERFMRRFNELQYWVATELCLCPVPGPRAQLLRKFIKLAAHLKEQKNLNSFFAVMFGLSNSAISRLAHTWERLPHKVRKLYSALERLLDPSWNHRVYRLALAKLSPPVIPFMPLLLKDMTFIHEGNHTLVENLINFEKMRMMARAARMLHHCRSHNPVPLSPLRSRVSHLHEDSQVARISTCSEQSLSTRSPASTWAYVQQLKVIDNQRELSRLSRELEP
Method in brief: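 Nucleotide exchange uses 100 nM EPAC1, 250 nM RAP1B-BODIPY-GDP and 50 uM GDP, with compounds in a concentration-titration series. After 5 min at room temperature, fluorescence (480 nm ex/540 nm em) is read every 5 min for 30 min. Data are normalized to control ATA and DMSO.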

[12] = molecular target: Cytochrome P450 3A4 (Homo sapiens) (UniProt P08684); test: qHTS Assay for Inhibitors and Substrates of Cytochrome P450 3A4 (AID 884); note: % is set by controls: 0 for no effect and ±100 for the full control effect; nearly all actives have a fitted effect of over 50% in size
UniProt P08684, sequence (P08684 whole entry, looked up): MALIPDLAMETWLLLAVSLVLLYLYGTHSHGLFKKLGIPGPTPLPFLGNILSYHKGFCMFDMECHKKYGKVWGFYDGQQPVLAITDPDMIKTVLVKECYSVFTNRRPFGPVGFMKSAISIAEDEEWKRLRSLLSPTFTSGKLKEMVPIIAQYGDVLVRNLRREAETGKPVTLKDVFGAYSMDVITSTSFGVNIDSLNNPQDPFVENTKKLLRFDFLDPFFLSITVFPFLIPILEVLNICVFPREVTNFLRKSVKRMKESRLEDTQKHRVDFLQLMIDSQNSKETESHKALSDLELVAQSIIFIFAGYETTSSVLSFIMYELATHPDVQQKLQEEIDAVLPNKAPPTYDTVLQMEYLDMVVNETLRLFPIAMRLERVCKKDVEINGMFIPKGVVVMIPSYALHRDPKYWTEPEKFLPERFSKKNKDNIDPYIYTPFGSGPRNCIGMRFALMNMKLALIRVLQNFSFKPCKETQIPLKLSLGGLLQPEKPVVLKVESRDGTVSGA
Method in brief: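 20 nM human CYP3A4 with 25 uM Luciferin-PPXE (at KM) in 200 mM KPO4, preincubated 10 min with compound; NADPH regeneration started a 60 min RT reaction. Luciferin detected by luminescence, normalized to 57 uM ketoconazole as full inhibition.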

[13] = molecular target: Cytochrome P450 3A4 (Homo sapiens) (UniProt P08684); test: qHTS Assay for Activators of Cytochrome P450 3A4 (AID 885); conditions: recombinant CYP3A4, Luciferin-PPXE luminescence, 60 min; note: potency is the fitted concentration of half-maximal effect; nearly all actives have a fitted effect of over 65% in size
Method in brief: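 Quantitative HTS format: compounds preincubated with 20nM human CYP3A4 and Luciferin-PPXE substrate at KM, reaction started by NADPH regeneration, stopped after 60 min, luciferase luminescence read 20 min later.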

[14] = tested on: Zika virus NS2B-NS3 protease (linked construct); test: Confirmatory screen NINDS AMC qHTS for Zika virus inhibitors (AID 1347152); note: potency is the fitted concentration of half-maximal effect; nearly all actives have a fitted effect of over 70% in size
Method in brief: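 Concentration-response confirmation used the NINDS linked protease (NS2B hydrophilic domain joined to NS3 protease domain), 1 nM, with a 15-min compound preincubation. Substrate, Nle-KRR-AMC at 10 microM, was read by UV fluorescence before and after 15 min.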

[15] = tested on: Zika virus NS2B-NS3 protease (linked construct); test: 384 well plate NINDS Rhodamine confirmatory qHTS for Zika virus inhibitors (AID 1347164); note: potency is the fitted concentration of half-maximal effect; nearly all actives have a fitted effect of over 65% in size
Method in brief: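 Cleavage of Ac-LKRR-Rhodamine 110 (10 microM final) by linked protease (final 5, 30 or 60 nM) was followed as fluorescence at 485/538 nm after 25 min, room temperature, dark. Compounds preincubated ~15 min.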
Tags give direction and shape of the fitted curve or compound fluorescence and quenching.

In the case of `O=C1NC(c2cccc([N+](=O)[O-])c2)=CCN1c1ccccc1O`, the Potency [1] is reported as inconclusive [inhibitor, single point] and the Potency [2] is reported as inconclusive [inhibitor, partial curve, poor fit].
With `CC(=O)Nc1c(I)cc(I)c(C(=O)O)c1I` the Potency [3] was “inactive”.
With `COCCOC(=O)C1=C(C)NC(C)=C(C(=O)OC(C)C)C1c1cccc([N+](=O)[O-])c1` (stereo not given) the Potency [4] was inconclusive [inhibitor, partial curve], the Potency [5] was inconclusive [cytotoxic, partial curve] and the Potency [6] was inconclusive [inhibitor, partial curve, poor fit]. For the same compound, the Potency [7] was active: 11.6 µM, the activation [8] was inactive: -1.48% and the Potency [9] was active: 2.06 µM. For the same compound, the Potency [10] was “inactive” and the Potency [11] was inconclusive [inhibitor, partial curve, poor fit].
For `C/C=C/C(=O)N(CC)c1ccccc1C`, the Potency [12] was “inactive” and the Potency [13] was inconclusive [activator, partial curve].
For `CCOC(=O)Cn1cccc1-c1nc(-c2ccc(OC)cc2)c(-c2ccc(OC)cc2)s1`, the Potency [14] was active: 24.1 µM and the Potency [15] was active: 0.398 µM.
